Experimental data from the antibiotic and cytotoxicity screens of Wong et al. (2023).
This is one part of the list.

Assays:
[1] = system: HSkMC (human skeletal muscle cells); assay: cytotoxicity call (relative viability < 0.9); settings: 10 µM
[2] = system: HepG2; assay: cytotoxicity call (relative viability < 0.9); settings: 10 µM
[3] = system: S. aureus RN4220; assay: growth inhibition call (relative growth <= 0.2); settings: 50 µM

COc1ccc(NC(=O)Nc2ccc3c(c2)CC(=O)N([C@@H](C)CO)C[C@H](C)[C@@H](CN(C)C(=O)Nc2ccc(C(F)(F)F)cc2)O3)cc1
inactive: cytotoxicity call [1] | cytotoxicity call [2] | growth inhibition call [3]

C[C@@H]1CN([C@@H](C)CO)C(=O)c2cc(NC(=O)C3CC3)ccc2O[C@H]1CN(C)Cc1ccc(-c2ccccc2)cc1
inactive: cytotoxicity call [1] | cytotoxicity call [2] | growth inhibition call [3]

Nc1cc(=O)[nH]c(=O)n1-c1ccc(Cl)cc1
inactive: cytotoxicity call [1] | cytotoxicity call [2] | growth inhibition call [3]

CC(C)NC(=O)N(C)C[C@H]1Oc2ccc(NC(=O)Nc3ccc4c(c3)OCO4)cc2CC(=O)N([C@H](C)CO)C[C@@H]1C
inactive: cytotoxicity call [1] | cytotoxicity call [2] | growth inhibition call [3]

C[C@H](CO)N1C[C@H](C)[C@H](CN(C)C(=O)Nc2ccc3c(c2)OCO3)Oc2c(NC(=O)C3CCOCC3)cccc2C1=O
inactive: cytotoxicity call [1] | cytotoxicity call [2] | growth inhibition call [3]

C[C@@H]1CN([C@@H](C)CO)C(=O)Cc2cc(NS(=O)(=O)c3cn(C)cn3)ccc2O[C@H]1CN(C)Cc1ccc(C(=O)Nc2ccccc2N)cc1
inactive: cytotoxicity call [1] | cytotoxicity call [2] | growth inhibition call [3]

C[C@H](CO)N1C[C@H](C)[C@H](CN(C)CC2CCOCC2)Oc2cc(C#Cc3cccnc3)ccc2S1(=O)=O
inactive: cytotoxicity call [1] | cytotoxicity call [2] | growth inhibition call [3]

C[C@@H]1CCCCO[C@@H](CN(C)Cc2ccccc2)[C@H](C)CN([C@@H](C)CO)C(=O)c2cc(NS(=O)(=O)c3cccs3)ccc2O1
inactive: cytotoxicity call [1] | cytotoxicity call [2] | growth inhibition call [3]

Cc1ccc(S[C@]2(C(=O)NCc3ccccc3)CC(=O)N(C3CCCCC3)[C@@H]2c2ccc(CO)cc2I)cc1
inactive: cytotoxicity call [1] | cytotoxicity call [2] | growth inhibition call [3]
